From paper PMC4336329 (PLoS ONE, 2015) come the findings set out here.

In all, about 310,000 compounds went through this assay and about 14,000 (4.5%) showed an effect of 50% or more. Effects have a minus sign here. The list shows a part of the results.
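Further: peak tail current of the secondary pulse compared with the same well before compound.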

human ether-à-go-go-related gene (hERG) potassium channel, sequence (Q12809 whole entry, looked up): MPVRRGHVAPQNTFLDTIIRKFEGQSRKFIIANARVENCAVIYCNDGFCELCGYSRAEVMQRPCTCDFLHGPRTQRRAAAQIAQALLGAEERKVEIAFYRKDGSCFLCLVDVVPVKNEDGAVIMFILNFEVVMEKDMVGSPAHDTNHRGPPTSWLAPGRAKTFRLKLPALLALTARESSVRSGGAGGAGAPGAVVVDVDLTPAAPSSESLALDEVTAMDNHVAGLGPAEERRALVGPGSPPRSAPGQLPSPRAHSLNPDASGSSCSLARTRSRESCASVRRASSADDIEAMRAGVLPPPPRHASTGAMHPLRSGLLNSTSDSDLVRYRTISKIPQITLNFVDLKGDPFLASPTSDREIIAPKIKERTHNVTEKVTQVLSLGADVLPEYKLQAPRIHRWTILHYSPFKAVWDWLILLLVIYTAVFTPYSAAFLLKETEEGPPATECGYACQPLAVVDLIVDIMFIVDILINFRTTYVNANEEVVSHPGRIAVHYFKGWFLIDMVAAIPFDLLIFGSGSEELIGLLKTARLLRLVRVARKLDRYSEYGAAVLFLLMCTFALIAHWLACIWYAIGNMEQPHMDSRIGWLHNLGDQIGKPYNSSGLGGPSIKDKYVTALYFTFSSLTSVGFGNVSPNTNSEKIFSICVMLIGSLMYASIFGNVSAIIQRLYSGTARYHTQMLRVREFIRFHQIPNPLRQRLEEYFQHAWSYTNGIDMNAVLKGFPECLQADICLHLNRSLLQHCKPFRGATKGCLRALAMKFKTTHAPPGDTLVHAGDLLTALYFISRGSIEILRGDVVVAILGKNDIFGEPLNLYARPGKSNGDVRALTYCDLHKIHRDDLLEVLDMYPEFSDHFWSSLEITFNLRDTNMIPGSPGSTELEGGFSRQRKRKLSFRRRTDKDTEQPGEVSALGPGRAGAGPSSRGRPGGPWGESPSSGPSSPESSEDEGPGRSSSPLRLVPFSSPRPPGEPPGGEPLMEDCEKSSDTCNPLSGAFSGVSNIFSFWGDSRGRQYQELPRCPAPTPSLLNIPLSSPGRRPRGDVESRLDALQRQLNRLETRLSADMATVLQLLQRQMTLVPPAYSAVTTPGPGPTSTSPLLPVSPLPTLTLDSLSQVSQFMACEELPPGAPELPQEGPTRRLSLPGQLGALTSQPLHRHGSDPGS

This assay addresses human ether-à-go-go-related gene (hERG) potassium channel (human, UniProt Q12809). Description: primary screen, population patch clamp on CHO cells stably expressing hERG.
For the molecule `O=C(Nc1ccc2c(c1)OCO2)c1ccccc1`, the “hERG current change (%, negative = inhibition) at 10uM” value was 5.43%.

For the molecule `O=[N+]([O-])c1cc(F)c2cccnc2c1O`, the “hERG current change (%, negative = inhibition) at 10uM” value was determined as 17.4%.

`Nc1sc(-c2ccccc2)cc1-c1n[nH]c(=S)n1C1CCCCC1`: the “hERG current change (%, negative = inhibition) at 10uM” value is 20.3%.

Regarding `CCCC(=O)OCC(=O)Nc1ccc(N=Nc2ccccc2)cc1`, the “hERG current change (%, negative = inhibition) at 10uM” value is reported as -8.3%.

Regarding `O=C(CSc1nc(Nc2ccccc2)nc(N2CCOCC2)n1)Nc1ccc2c(c1)OCCO2`, the “hERG current change (%, negative = inhibition) at 10uM” value is -7.99%.

`CN(C)c1cc(Cl)c2nonc2c1N`: the “hERG current change (%, negative = inhibition) at 10uM” value is reported as 0.979%.

Regarding `CCOC(=O)C1=C(C)NC(=O)NC1c1c(C)nn(-c2ccccc2)c1Cl` (stereo not drawn), the “hERG current change (%, negative = inhibition) at 10uM” value is reported as -0.17%.

In the case of `CCOc1ccccc1N1CCN(C(=O)C(F)(F)F)CC1`, the “hERG current change (%, negative = inhibition) at 10uM” value is -1.42%.

`CCCCn1c(N)c(N(CCOC)C(=O)c2ccc(S(=O)(=O)N(CC)c3ccccc3)cc2)c(=O)[nH]c1=O`: the “hERG current change (%, negative = inhibition) at 10uM” value was 8.17%.

In the case of `COc1ccc(NC(=O)CN(C)C(=O)c2cc3c(s2)CCC(C)C3)cc1` (stereo not drawn), the “hERG current change (%, negative = inhibition) at 10uM” value is on record as -2.05%.

For `COC(=O)c1c(NC(=O)CN2C(=O)NC3(CCC(C)CC3)C2=O)sc2c1CCC2` (stereo not drawn), the “hERG current change (%, negative = inhibition) at 10uM” value is -0.978%.

Take `N#Cc1ccsc1NC(=O)CN1CCN(c2ccccc2)CC1`: the “hERG current change (%, negative = inhibition) at 10uM” value amounted to 1.63%.

For `COc1ccc2cc(CN(Cc3cccs3)Cc3nnnn3Cc3ccccc3)c(=O)[nH]c2c1`, the “hERG current change (%, negative = inhibition) at 10uM” value was -11.3%.

Consider `CC(=O)c1ccc(NC(=O)/C(=C\c2ccc(F)cc2)NC(=O)c2ccco2)cc1`, for which the “hERG current change (%, negative = inhibition) at 10uM” value was -29.2%.

Turning to `O=c1cc(Cn2nnc(-c3ccc(Cl)cc3)n2)nc2sccn12`, the “hERG current change (%, negative = inhibition) at 10uM” value is reported as -34.1%.

Consider `CC(=O)Nc1ccc(S(=O)(=O)NCc2ccccn2)cc1`, for which the “hERG current change (%, negative = inhibition) at 10uM” value is on record as 9.6%.

As for `CCOc1ccc(NC(=O)N2CCC(C(N)=O)(N3CCCCC3)CC2)cc1`, the “hERG current change (%, negative = inhibition) at 10uM” value was -3.12%.

On to `c1ccc(Cn2nnc3c(N4CCCCCC4)ncnc32)cc1`, for which the “hERG current change (%, negative = inhibition) at 10uM” value is -13.2%.

As to `CCn1cc(C2C(C(=O)Nc3cc(C)ccn3)=C(C)NC3=C2C(=O)CC(C)(C)C3)c(C)n1` (stereo not drawn), the “hERG current change (%, negative = inhibition) at 10uM” value was determined as 11.3%.

Take `CCCN(CCC)C(=O)Cn1c2ccccc2c2nc(=O)cc(C)n21`: the “hERG current change (%, negative = inhibition) at 10uM” value is listed as 2.47%.

In the case of `COc1ccc(C2(O)C(=O)Nc3ccccc32)cc1` (stereo not drawn), the “hERG current change (%, negative = inhibition) at 10uM” value came out at 0.493%.

Regarding `Cc1ccc(SCCC(=O)Nc2cccnc2)cc1`, the “hERG current change (%, negative = inhibition) at 10uM” value is listed as 17.8%.

On to `CN1CCC(CO)(Cc2ccccc2)CC1`, for which the “hERG current change (%, negative = inhibition) at 10uM” value was 16.2%.

Consider `Cn1c(=O)c2c(nc3n2CCCN3CCc2ccccc2)n(C)c1=O`, for which the “hERG current change (%, negative = inhibition) at 10uM” value is -1.45%.

Take `Cc1nc2c(C)cccn2c1C(=O)N/N=C/c1ccccc1[N+](=O)[O-]`: the “hERG current change (%, negative = inhibition) at 10uM” value is on record as 2.55%.

For `Cn1ccc(=NC=C(C#N)C#N)c2ccccc21`, the “hERG current change (%, negative = inhibition) at 10uM” value is given as 13.6%.

With `CSc1ccc(-c2ccco2)nn1`, the “hERG current change (%, negative = inhibition) at 10uM” value turned out to be 17.7%.

For the molecule `O=C(NCCC(=O)N1CCc2ccccc21)c1ccco1`, the “hERG current change (%, negative = inhibition) at 10uM” value amounted to 6.04%.

As for `Cc1nc(C)c(-c2csc(Nc3ccc(O)c(C(=O)O)c3)n2)s1`, the “hERG current change (%, negative = inhibition) at 10uM” value stood at 20.5%.

As to `O=C(NCC(=O)N(CCc1ccccc1)C(C(=O)NC1CCCC1)c1cccnc1)c1ccco1` (stereo not drawn), the “hERG current change (%, negative = inhibition) at 10uM” value is recorded as -43.8%.

Consider `C/C(=N\NC(=O)c1cccc(Cl)c1)C1C(=O)c2ccccc2C1=O`, for which the “hERG current change (%, negative = inhibition) at 10uM” value is reported as -10.5%.

Take `CC(C)N=C(NC#N)SCc1ccc(Br)cc1`: the “hERG current change (%, negative = inhibition) at 10uM” value is reported as 17.1%.

Regarding `Cc1c(Br)ccc(NC(=O)COc2ccccc2C(N)=O)c1C`, the “hERG current change (%, negative = inhibition) at 10uM” value came out at 21.1%.

For the molecule `O=C(OCC(=O)N1CCCC1=O)c1cc(S(=O)(=O)N2CCOCC2)ccc1F`, the “hERG current change (%, negative = inhibition) at 10uM” value is given as -22.5%.

Take `CCOC(=O)C1CCN(S(=O)(=O)c2c(C(=O)N3CCCCC3)c(C)n(C)c2C)CC1`: the “hERG current change (%, negative = inhibition) at 10uM” value is -5.52%.

As to `CS(=O)(=O)c1cccc(-c2nnc(NC(=O)c3ccc4ncsc4c3)o2)c1`, the “hERG current change (%, negative = inhibition) at 10uM” value came out at 1.14%.

For `Cc1cc(Cl)ccc1OCCCC(=O)NCC1CCCO1` (stereo not drawn), the “hERG current change (%, negative = inhibition) at 10uM” value was -1.34%.

As for `CN1C2C=C3C(C#N)=C(N)C(C#N)(C#N)C(c4ccc(Br)cc4)C3C1CC2` (stereo not drawn), the “hERG current change (%, negative = inhibition) at 10uM” value is reported as -14.9%.

Regarding `COC(=O)CCCCC(=O)OC`, the “hERG current change (%, negative = inhibition) at 10uM” value turned out to be 17%.

For the molecule `O=C1NC2(CCCCC2)Oc2ccccc21`, the “hERG current change (%, negative = inhibition) at 10uM” value is reported as 3.53%.

Turning to `N#C/C(=C\c1cc2c(cc1Br)OCO2)C(=O)NCC1CCCO1` (stereo not drawn), the “hERG current change (%, negative = inhibition) at 10uM” value is listed as -6.38%.

In the case of `CCOC(=O)C1(CCOc2ccccc2)CCN(Cc2cnc(SC)nc2)CC1`, the “hERG current change (%, negative = inhibition) at 10uM” value is given as -72.2%.

For `COC(=O)c1ccc(OC)c(OC2CCCC2)c1`, the “hERG current change (%, negative = inhibition) at 10uM” value worked out at 10.5%.

`COc1cccc(CNC(=O)C2CCC(=O)N(CCc3cccc(F)c3)C2)c1` (stereo not drawn): the “hERG current change (%, negative = inhibition) at 10uM” value is reported as -13%.

Take `COc1cc(S(=O)(=O)NC2CCCC2)ccc1Cl`: the “hERG current change (%, negative = inhibition) at 10uM” value is listed as 6.42%.
